Data taken from paper PMC10987633, “Structural basis for RAD18 regulation by MAGEA4 and its implications for RING ubiquitin ligase binding by MAGE family proteins” (The EMBO Journal, 2024).
Results are given in words; binding and its absence hold for the method and conditions named. For part of these data: Binding seen in cells or lysates may run through a third protein. Some results given as binding are weak or reduced against the parent protein; the word gives no strength.

Protein sequences, listed by entry. Tags and fused reporters are not part of them. Lines headed by an entry give the natural chain unless they say otherwise; changes in a name come on top.
UniProt P43358: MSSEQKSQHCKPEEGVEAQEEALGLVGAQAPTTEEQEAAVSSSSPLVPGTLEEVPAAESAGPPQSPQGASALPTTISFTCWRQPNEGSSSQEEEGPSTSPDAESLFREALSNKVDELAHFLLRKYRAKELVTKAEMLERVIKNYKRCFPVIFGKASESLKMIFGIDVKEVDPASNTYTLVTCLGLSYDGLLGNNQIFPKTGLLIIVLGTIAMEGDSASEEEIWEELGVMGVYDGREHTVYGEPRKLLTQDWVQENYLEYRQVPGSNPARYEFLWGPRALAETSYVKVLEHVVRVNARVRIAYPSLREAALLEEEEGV

B1: RAD18 R6BD peptide (residues 340-366) (peptide, UniProt Q9NS91 340-366, looked up)
peptide: SKYRKKHKSEFQLLVDQARKGYKKIAG
notes: also called 27 amino acid peptide corresponding to the RAD18 R6BD; source: synthetic peptide, bought: GenScript

Key:
[1] = molecular target: T1, His-tagged full-length RAD18 wild type (human, UniProt Q9NS91 1-495); experiment: pull-down; His-tagged RAD18 (WT or mutant) co-expressed with untagged MAGEA4 in E. coli; cleared lysate on TALON resin 1 h at 4 °C; lysis buffer 200 mM NaCl, 50 mM Tris pH 7.5, 10% glycerol; western blot
T1 construct: RAD18, RING E3 ubiquitin ligase, human, Uniprot Q9NS91, residues 1-495, full length; Cloned into PET15C; Dimer in the RAD18/RAD6 complex by AUC and mass photometry; also called RAD18 WT; FL RAD18; source: E. coli BL21star; co-expressed with untagged MAGEA4, in cleared lysate (His pull-down); co-expressed with RAD6 and purified as RAD18/RAD6 (TALON, SEC); not shown: His tag, N-terminal, kept

[2] = molecular target: His-tagged full-length RAD18 A357D (human) (UniProt Q9NS91); experiment: as above
[3] = molecular target: His-tagged full-length RAD18 F350D (human) (UniProt Q9NS91); experiment: as above
[4] = molecular target: His-tagged full-length RAD18 V354D (human) (UniProt Q9NS91); experiment: as above
[5] = molecular target: His-tagged full-length RAD18 Y361D (human) (UniProt Q9NS91); experiment: as above
[6] = molecular target: full-length MAGEA4 triple mutant (M161D, I205D, L288D) (human) (UniProt P43358); experiment: condition: 200 µM peptide titrated into 20 µM protein; ITC; RAD18 R6BD peptide at 200 µM titrated into protein at 20 µM; MicroCal ITC200, 25 °C; SEC buffer (100 mM NaCl, 20 mM HEPES pH 7.5, 1 mM TCEP); both purified

| Molecule | binding [1] | binding [2] | binding [3] | binding [4] | binding [5] | binding [6] |
| --- | --- | --- | --- | --- | --- | --- |
| untagged full-length MAGEA4 wild type (from UniProt P43358 1-317) | binds | binds | binds weakly | binds | binds weakly | – |
| B1 | – | – | – | – | – | no binding |
